About 6,400 (1.6%) of roughly 410,000 compounds were called active. Inconclusive means that the source gave no clear call. Such entries were picked first, then a sample of the others. Calls follow the shape of the dose curve; as a rule, active = well fitted inhibition curve with a large enough effect; inconclusive = small, poorly fitted or top-dose-only effect; inactive = no such curve, though single readings can be large or run the other way. No potency is given beside an inconclusive call; the fits are too rough.
What follows are compounds tested against Glucagon-like peptide 1 receptor (Homo sapiens) (UniProt P43220) (assay: qHTS of GLP-1 Receptor Inverse Agonists (Inhibition Mode)). Details: HEK293 GLP-1R CRE-luciferase, luminescence, 24 h, GLP-1R form is constitutively active; series mostly up to 38.3 µM.
Sequence of UniProt P43220 (P43220 whole entry, looked up): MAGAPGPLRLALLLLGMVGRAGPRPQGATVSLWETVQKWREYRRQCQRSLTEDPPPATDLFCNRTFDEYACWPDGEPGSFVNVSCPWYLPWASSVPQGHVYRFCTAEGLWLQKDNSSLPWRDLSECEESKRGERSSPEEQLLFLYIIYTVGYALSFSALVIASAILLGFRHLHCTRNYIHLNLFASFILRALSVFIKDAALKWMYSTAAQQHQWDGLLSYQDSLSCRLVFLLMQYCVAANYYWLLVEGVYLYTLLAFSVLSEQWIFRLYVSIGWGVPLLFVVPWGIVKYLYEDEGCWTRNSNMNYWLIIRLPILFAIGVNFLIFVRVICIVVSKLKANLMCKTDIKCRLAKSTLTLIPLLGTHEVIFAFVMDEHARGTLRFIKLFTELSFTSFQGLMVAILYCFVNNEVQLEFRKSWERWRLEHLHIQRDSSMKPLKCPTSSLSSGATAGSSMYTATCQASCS
How it was run: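 Cells are plated, allowed 12 hours at 37 deg C, then treated with compounds for 24 hr before luciferase detection reagent is added and luminescence is read after 12 min at room temperature. The HEK293 line carries constitutively active GLP-1R with a cAMP-responsive reporter.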
Also: nearly all actives have a fitted effect of over 55% in size.
Potency is read from the fitted curve at half-maximal effect; tags tell the direction and shape of the fitted curve.

Question: For `CCN1C(=O)C(Cc2nc3ccccc3c(=O)n2-c2ccc(OC)cc2)c2ccccc21` (stereo not given), which Potency is on record?
Answer: Its Potency is “inactive”.

Question: For `C=CCNCCOCCOc1ccccc1-c1ccccc1`, which Potency is on record?
Answer: Its Potency is inconclusive [inhibitor, partial curve, poor fit].

Question: Which Potency does the source give for `O=C(c1cc(-c2ccncc2)nc2ccccc12)N1CCN(S(=O)(=O)/C=C/c2ccccc2)CC1` here?
Answer: Its Potency is inconclusive [inhibitor, single point].

Question: How did the Potency turn out when `CC(C)(C)NC(=O)CN(C(=O)Cn1nnc(-c2ccc(Cl)cc2)n1)C1CCN(Cc2ccccc2)CC1` was run?
Answer: The Potency was inconclusive [inhibitor, partial curve, poor fit].

Question: For `CN(C)c1nc(N(C)C)nc(N(C#N)CCOc2ccccc2)n1`, which Potency is on record?
Answer: Its Potency is inconclusive [inhibitor, single point].

Question: How did the Potency turn out when `CC1(CCc2ccccc2)NC(=O)N(CC(=O)Nc2ccc(OC(F)F)cc2)C1=O` (stereo not given) was run?
Answer: The Potency was inconclusive [inhibitor, partial curve, poor fit].

Question: `Cc1cc(C(=O)N2CCN(c3cccc(Cl)c3)CC2)c(C)o1` was tested. Which Potency did it give?
Answer: The Potency was inconclusive [inhibitor, partial curve].

Question: For `O=C(CN1C(=O)NC2(CCc3ccccc32)C1=O)c1ccc(Cl)cc1` (stereo not given), which Potency is on record?
Answer: Its Potency is inconclusive [inhibitor, single point].

Question: `O=C(Nc1ccc(C(F)(F)F)cc1)N1CCN(c2ccnc3cc(Cl)ccc23)CC1` was tested. Which Potency did it give?
Answer: Its Potency is inconclusive [inhibitor, single point].

Question: How did the Potency turn out when `Cc1cc(OCC(=O)N2CCc3ccccc3C2)c(C)cc1Br` was run?
Answer: Its Potency is inconclusive [inhibitor, full curve].

Question: Which Potency does the source give for `COc1cc(/C=C/CN2CCC(C(=O)NC(c3ccc(F)cc3)c3ccc4ccccc4n3)CC2)ccc1OC(C)=O` (stereo not given) here?
Answer: Its Potency is active: 10 µM.

Question: For `Cc1cc(C)c(C(=O)COC(=O)c2cccc(S(=O)(=O)NCc3ccccc3)c2)cc1C`, which Potency is on record?
Answer: Its Potency is inconclusive [inhibitor, partial curve, poor fit].

Question: Which Potency does the source give for `CCOC(=O)CSc1nnc(-c2ccoc2C)n1-c1ccc(OCC)cc1` here?
Answer: The Potency was inconclusive [inhibitor, partial curve, poor fit].

Question: `Cc1ccccc1N(C(=O)c1cccs1)c1nc2ccccc2s1` was tested. Which Potency did it give?
Answer: The Potency was active: 2.24 µM.

Question: Which Potency does the source give for `Cc1ccsc1/C=N/Nc1ncc(Cl)cc1Cl` here?
Answer: The Potency was inconclusive [inhibitor, single point].

Question: `CCOC(=O)C1(Cc2ccc(Cl)cc2)CCN(Cc2cn(CC)nc2C)CC1` was tested. Which Potency did it give?
Answer: The Potency was inconclusive [inhibitor, partial curve, poor fit].

Question: `COc1ccccc1CNC(=O)c1oc2ccc3c(c2c1C)C(=O)CC(C)(C)O3` was tested. Which Potency did it give?
Answer: The Potency was inconclusive [inhibitor, single point].

Question: How did the Potency turn out when `Cc1ccccc1/C=N/n1c(C2CCCCC2)n[nH]c1=S` was run?
Answer: Its Potency is inconclusive [inhibitor, partial curve, poor fit].

Question: For `O=C(c1ccc(N2C(=O)C3CCCCC3C2=O)cc1)N1CCCCC1` (stereo not given), which Potency is on record?
Answer: Its Potency is “inactive”.

Question: Which Potency does the source give for `COc1cccc(C(=O)O/N=C(\N)c2ccncc2)c1OC` here?
Answer: The Potency was “inactive”.

Question: With `CCOc1c2ccc(C(=O)N[C@H](C)C3CCCCC3)cc2nn1CC` as the compound, how does the Potency read?
Answer: The Potency was “inactive”.

Question: Which Potency does the source give for `COc1ccc(CCn2c(-n3nc(C)cc3C)nc3c2c(=O)[nH]c(=O)n3C)cc1` here?
Answer: The Potency was inconclusive [inhibitor, full curve, poor fit].

Question: How did the Potency turn out when `CC1=Nc2cc(C(=O)NCCc3ccc(Cl)cc3)ccc2Sc2c(C)ccc(C)c21` was run?
Answer: The Potency was active: 2.82 µM.

Question: For `COc1cccc(C(O)c2nc(-c3cccc(C(F)(F)F)c3)cs2)c1` (stereo not given), which Potency is on record?
Answer: The Potency was inconclusive [inhibitor, single point].

Question: Which Potency does the source give for `CC(C)(C)c1ccc(OCC(=O)NNC(=O)CCc2ccccc2)cc1` here?
Answer: The Potency was inconclusive [inhibitor, single point].

Question: `Cc1nc(-c2ccc(NC(=O)c3ccccc3)cc2)cs1` was tested. Which Potency did it give?
Answer: Its Potency is inconclusive [inhibitor, single point].

Question: How did the Potency turn out when `O=C(COC(=O)c1ccccc1-n1cnnn1)c1ccc(Br)cc1` was run?
Answer: Its Potency is “inactive”.

Question: `CN(C)CCN(C(=O)c1ccc2c(c1)OCCO2)c1nc2ccc(Cl)cc2s1` was tested. Which Potency did it give?
Answer: The Potency was inconclusive [inhibitor, partial curve, poor fit].

Question: For `COc1cc(OC)cc(C(=O)N2CCC(N3CCN(c4ccccc4OC)CC3)CC2)c1`, which Potency is on record?
Answer: The Potency was inconclusive [inhibitor, partial curve, poor fit].

Question: For `O=C(CCc1ccc(O)cc1)NN=Cc1ccc2c(c1)OCO2`, which Potency is on record?
Answer: The Potency was inconclusive [inhibitor, partial curve, poor fit].

Question: With `CC(C)(C)C1CCC2(CC1)C(C#N)=C(SCC(=O)Nc1ccccc1)NC(=O)C2C#N` (stereo not given) as the compound, how does the Potency read?
Answer: The Potency was inconclusive [inhibitor, partial curve, poor fit].

Question: How did the Potency turn out when `CCc1ccc(C(C)NC(=O)C2CCCC2)cc1` (stereo not given) was run?
Answer: The Potency was inconclusive [inhibitor, single point].

Question: How did the Potency turn out when `COc1cccc(Cn2c3ccc(NC(=O)CCc4ccc(F)cc4)cc3c(=O)n2C)c1` was run?
Answer: The Potency was inconclusive [inhibitor, full curve].

Question: How did the Potency turn out when `O=C(CCl)Nc1ccc2c(c1)OCO2` was run?
Answer: Its Potency is inconclusive [inhibitor, single point].

Question: Which Potency does the source give for `CCCOc1ccc(C2C(C(=O)OC)=CN(CCOC)C=C2C(=O)OC)cc1` here?
Answer: Its Potency is inconclusive [inhibitor, partial curve, poor fit].

Question: How did the Potency turn out when `CC(C)CC1NC(=O)N(CC(=O)Nc2cccc(Br)c2)C1=O` (stereo not given) was run?
Answer: Its Potency is inconclusive [inhibitor, single point].

Question: With `O=C(COC(=O)[C@@H]1CC(O)CN1S(=O)(=O)c1ccccc1[N+](=O)[O-])c1ccccc1` (stereo not given in full) as the compound, how does the Potency read?
Answer: Its Potency is inconclusive [inhibitor, single point].

Question: `NC(=O)c1nn(CC(=O)Nc2cccc(S(=O)(=O)N3CCCCCC3)c2)c(=O)c2ccccc12` was tested. Which Potency did it give?
Answer: The Potency was “inactive”.

Question: Which Potency does the source give for `O=C(CN1CCc2ccccc2C1)Nc1ccc(OC(F)(F)F)cc1` here?
Answer: Its Potency is inconclusive [inhibitor, single point].

Question: How did the Potency turn out when `CSc1nc(-c2ccc(Cl)cc2Cl)[nH]c(=O)c1C#N` was run?
Answer: Its Potency is inconclusive [inhibitor, single point].

Source: PubChem BioAssay AID624417 (National Center for Advancing Translational Sciences (NCATS), 2012)
